Source: the supplement of paper PMC3334620
Over roughly 33,000 sequences, “E-score (-0.5 to 0.5)” has its median near -0.012; the highest 2% begin near 0.29. The list shows a part of the results.

molecular target: T1, Ybr033w (UniProt P38073); test: PBM E-score (8-mer binding enrichment) (E-score (-0.5 to 0.5)); higher = stronger / more preferred TF binding; most listed sequences are background and not binding sites; details: protein concentration: 200 nM; construct: GST-full length
T1 sequence: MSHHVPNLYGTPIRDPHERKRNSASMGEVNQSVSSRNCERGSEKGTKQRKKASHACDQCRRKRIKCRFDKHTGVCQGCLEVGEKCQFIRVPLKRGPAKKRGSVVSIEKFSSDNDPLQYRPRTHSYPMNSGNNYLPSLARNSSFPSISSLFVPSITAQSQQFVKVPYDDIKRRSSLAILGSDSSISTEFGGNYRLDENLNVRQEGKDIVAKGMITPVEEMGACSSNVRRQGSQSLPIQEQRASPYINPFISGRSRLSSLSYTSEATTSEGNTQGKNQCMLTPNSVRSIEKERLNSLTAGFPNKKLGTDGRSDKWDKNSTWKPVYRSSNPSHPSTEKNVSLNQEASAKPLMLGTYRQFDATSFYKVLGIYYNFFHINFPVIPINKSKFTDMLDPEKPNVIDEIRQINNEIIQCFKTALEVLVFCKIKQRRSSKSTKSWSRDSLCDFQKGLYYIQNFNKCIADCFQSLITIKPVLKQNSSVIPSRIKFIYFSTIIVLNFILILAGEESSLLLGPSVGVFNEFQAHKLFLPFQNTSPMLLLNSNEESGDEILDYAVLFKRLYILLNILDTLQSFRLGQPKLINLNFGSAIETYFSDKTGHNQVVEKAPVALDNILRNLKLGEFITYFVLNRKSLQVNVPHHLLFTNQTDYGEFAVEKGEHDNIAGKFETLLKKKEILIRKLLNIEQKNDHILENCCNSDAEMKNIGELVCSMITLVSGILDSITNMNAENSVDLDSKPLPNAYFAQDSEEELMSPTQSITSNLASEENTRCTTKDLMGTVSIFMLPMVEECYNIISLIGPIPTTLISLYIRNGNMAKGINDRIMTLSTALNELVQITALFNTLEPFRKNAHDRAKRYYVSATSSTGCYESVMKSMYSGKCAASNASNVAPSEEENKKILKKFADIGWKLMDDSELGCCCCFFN
Method in brief: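 Yeast transcription factors carrying a GST tag, as full-length proteins or DNA-binding domains, were produced by PURExpress in vitro transcription/translation. About 100-200 nM protein was applied to universal all-10-mer Agilent arrays, double-stranded by primer extension on fresh or once-stripped slides. Bound protein was detected with fluorescent anti-GST, and scans were normalised with masliner. The Universal PBM Analysis Suite gave each ungapped eight-base word, pooled with its reverse complement, an E-score, a modified Wilcoxon-Mann-Whitney statistic.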

| Sequence | PBM E-score |
| --- | --- |
| ACTGATTG | 0.0585 |
| ACGTGAAG | -0.0656 |
| ATGAGCAC | -0.0794 |
| CAGCGAGA | -0.0995 |
| CCACGTAC | -0.0232 |
| AGCTATAA | 0.078 |
| CGGGGAAG | -0.195 |
| GATCCAGC | -0.125 |
| AAAGAAAC | 0.117 |
| ATTCTGGC | -0.217 |
| AAAAATCC | 0.287 |
| GCGAACAA | 0.183 |
| ACTGGCCC | 0.0468 |
| AATGTGGG | 0.175 |
| CCAGGGGG | -0.383 |
| CCGGGGTA | -0.173 |
| AACAGGGC | -0.144 |
| AAGAGACA | 0.103 |
| ACCGCCCA | -0.269 |
| GCGTCTCA | -0.129 |
| CCACGGCC | -0.229 |
| AACCAAAG | 0.152 |

| Sequence | PBM E-score |
| --- | --- |
| CTCAAATC | 0.0295 |
| AGCATTCC | -0.043 |
| CAAACCTA | 0.0917 |
| CAACATAG | -0.0242 |
| CTTTTTTA | 0.124 |
| TTACCGAA | 0.0572 |
| ACCTACTA | 0.126 |
| CTATCACA | 0.15 |
| GCTTACCA | 0.087 |
| ACTGTGAG | -0.00662 |
| ATAGGATC | 0.0418 |
| ATTATGCG | 0.151 |
| TGATATCA | -0.011 |
| GAGTAAAC | 0.094 |
| AGCTCGGG | -0.0821 |
| GTTAGAAC | 0.0406 |
| ATTACGTA | 0.122 |
| GCGATGTA | 0.104 |
| AATCAGTA | 0.153 |
| AATGCTTC | 0.105 |
| AGTCTGTG | -0.206 |
| GGACGTGA | -0.265 |

| Sequence | PBM E-score |
| --- | --- |
| ACCTCTGC | -0.199 |
| AGTACCAG | -0.0329 |
| CTTTGGCC | 0.0559 |
| CGTTTGGA | 0.0158 |
| CACTACAC | -0.0863 |
| TAACCGGA | 0.0539 |
| AAGCTGCG | -0.101 |
| CGGGCATA | -0.157 |
| TCAACCAA | 0.114 |
| AATGAGAC | -0.0515 |
| GTGGTTCA | 0.17 |
| TGATGTAA | 0.142 |
| ACCTTGAT | 0.144 |
| TACGCGCA | 0.0815 |
| AATACTCA | 0.229 |
| ACGACAGT | -0.00999 |
| GTCCCAGA | -0.263 |
| AGTCTGGC | -0.258 |
| CGAACATC | -0.0571 |
| AGTGGAGA | 0.0873 |
| CTCACGAC | -0.187 |
| CCCAAAAG | -0.0497 |

| Sequence | PBM E-score |
| --- | --- |
| AAGGCTGG | -0.0837 |
| ATAGGGGG | -0.184 |
| ATAGTGGC | -0.112 |
| AGGTGTGC | -0.05 |
| ACATTATG | 0.139 |
| AGCCTTAG | -0.134 |
| GATTGAAA | 0.074 |
| CCTCAGAG | -0.308 |
| CCCGTGCA | -0.251 |
| CGACGCTA | -0.12 |
| CTATATGC | 0.183 |
| CCGATAAG | -0.146 |
| GATCTAGC | -0.208 |
| AGCCGAGG | -0.0193 |
| AATTTGAA | 0.233 |
| CTAGTATC | 0.176 |
| ACATGTTA | 0.289 |
| CATAAGCA | 0.0517 |
| TAACACCA | 0.0431 |
| AACATACT | 0.187 |
